# Data taken from the supplement of paper PMC12217912.
# The other results are listed elsewhere or left out. Sequences were assembled here from the parent chain. Values near 0.05 are background.
# B1: TEV protease; numbered along this chain (parent)
# chain: MGESLFKGPRDYNPISSSICHLTNESDGHTTSLYGIGFGPFIITNKHLFRRNNGTLVVQSLHGVFKVKDTTTLQQHLVDGRDMIIIRMPKDFPPFPQKLKFREPQREERICLVTTNFQTKSMSSMVSDTSCTFPSGDGIFWKHWIQTKDGQCGSPLVSTRDGFIVGIHSASNFTNTNNYFTSVPKNFMELLTNQEAQQWVSGWRLNADSVLWGGHKVFMVKPEEPFQPVKEATQL
# Variants of: B1
# Test: raw area under fraction-flipped curve 0-4 h after induction (AUC4h, not background-subtracted), DNA-recorder readout of cleavage of the substrate (dimensionless); higher = more cleavage of the substrate by the protease variant
# Details: temperature: 34 °C; time window: 0-4 h after rhamnose induction
# Description: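 In vivo DNA recorder in E. coli TOP10(DE3) ΔrhaA at 34 °C. Each TEVp single-site mutant (parent TEVp 0) is paired with a single-site variant of the 7-mer TEVs (canonical ENLYFQ|S). The substrate sits between flexible linkers in a Bxb1-sfGFP-TEVs-SsrA fusion, so cleavage stabilises Bxb1 and speeds flipping of a recombination array, read by NGS. The value is the raw area under the fraction-flipped curve over 0-4 h after rhamnose induction (AUC4h), with ≥20 reads per time point. It is not background-subtracted; inactive controls average about 0.047.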
# 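Note: Bxb1 expression induced with 0.2% (w/v) L-rhamnose at OD600 near 0.5, cultures sampled hourly, flipped fraction per protease–substrate barcode pair counted by paired-end Illumina sequencing.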
Variant,area with substrate ENLYFAS,area with substrate ENLYFDS,area with substrate ENLYFES,area with substrate ENLYFFS,area with substrate ENLYFGS,area with substrate ENLYFHS,area with substrate ENLYFIS,area with substrate ENLYFKS,area with substrate ENLYFMS,area with substrate ENLYFPS,area with substrate ENLYFSS,area with substrate ENLYFTS,area with substrate ENLYFVS,area with substrate ENLYFYS,area with substrate ENLYFCS,area with substrate ENLYFRS,area with substrate ENLYFWS,area with substrate ENLYFLS,area with substrate ENLYFNS
F187Q,0.0631,0.0331,0.0643,0.0637,0.0486,0.0474,0.0544,0.0573,0.0091,0.0538,0.0687,0.0531,0.0428,0.054,,,,,
F187I,0.0596,0.0497,0.0634,0.0727,,,0.0593,0.0647,0.0635,0.0584,0.0646,0.0528,0.067,,0.0603,0.0719,0.051,,
S169T,0.0667,0.0611,0.0689,0.0702,0.0478,0.066,0.0576,0.0592,0.0757,0.0566,0.0586,0.0555,,0.0482,0.0532,0.0614,0.0505,0.0607,0.0704
W199H,0.0308,,0.0431,0.0641,,0.0746,0.0607,0.0803,0.0437,0.0563,0.0558,0.0571,,0.0594,0.0589,,0.0593,,
N175C,0.0655,0.0504,0.0657,0.0578,,,0.0369,0.0631,0.055,0.0582,,0.0565,,0.0704,0.0521,0.0414,0.045,,
F173D,0.0578,0.0572,0.0598,0.074,0.0595,0.0636,0.0652,0.0601,0.0682,0.0667,0.0787,0.0591,0.0581,0.0579,0.0591,0.0698,0.0595,0.0492,0.0642
F173A,0.0649,0.0689,0.0668,0.0547,,0.0416,0.059,0.06,0.0574,0.0478,,0.0532,,0.0502,0.0591,,0.053,0.0536,0.0836
F180C,0.0565,,0.0557,0.0683,,,0.0578,0.0481,0.0648,0.0485,0.0605,0.0585,,0.0495,0.0639,0.0609,0.0641,0.0478,
F180V,0.0483,0.0468,0.0879,0.0589,,,0.0346,0.0579,0.0448,0.0523,0.0569,0.0731,,0.0545,0.0563,,,0.0619,0.0641
F180L,0.0516,,,0.0582,0.0752,0.0562,,0.0588,0.066,,0.0437,,,,0.0565,0.0497,0.0491,,
K221I,0.0595,0.0791,0.0366,0.0736,0.0557,0.0336,0.0568,0.0602,0.0532,0.0656,0.0765,0.076,0.0557,0.054,,,0.0596,0.0571,0.0575
K221Q,0.0499,,0.0801,0.0648,0.0872,,0.0542,0.0665,0.0607,0.0615,0.0944,0,0.0789,0.0488,0.0613,0.0486,,0.0788,0.075
